Patent US20240076343A1

Key:
[1] = molecular target: high-affinity hIL-2 receptor (IL-2Rαβγ) (human) (UniProt P01589); assay: cell-based or functional assay
[2] = molecular target: intermediate affinity hIL-2 receptor complex (IL-2Rβγ) (human) (UniProt P14784); assay: cell-based or functional assay
Chain of UniProt P14784 (P14784 27-551, chain 1 of 2): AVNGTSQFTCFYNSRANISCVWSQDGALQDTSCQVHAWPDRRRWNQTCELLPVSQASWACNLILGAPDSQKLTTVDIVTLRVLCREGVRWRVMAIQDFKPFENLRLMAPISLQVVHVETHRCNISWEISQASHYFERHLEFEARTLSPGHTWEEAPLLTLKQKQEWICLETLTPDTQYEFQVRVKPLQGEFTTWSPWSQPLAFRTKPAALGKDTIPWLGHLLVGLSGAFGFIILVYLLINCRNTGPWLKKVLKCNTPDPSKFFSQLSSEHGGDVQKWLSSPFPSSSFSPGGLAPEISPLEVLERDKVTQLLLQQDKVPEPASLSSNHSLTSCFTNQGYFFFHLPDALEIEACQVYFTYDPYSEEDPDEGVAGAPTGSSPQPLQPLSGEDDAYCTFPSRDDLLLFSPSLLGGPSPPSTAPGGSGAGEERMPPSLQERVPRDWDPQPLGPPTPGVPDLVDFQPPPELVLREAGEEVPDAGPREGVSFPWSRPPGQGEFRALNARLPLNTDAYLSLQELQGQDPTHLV
Chain of UniProt P14784 (chain, as listed by the source, chain 2 of 2): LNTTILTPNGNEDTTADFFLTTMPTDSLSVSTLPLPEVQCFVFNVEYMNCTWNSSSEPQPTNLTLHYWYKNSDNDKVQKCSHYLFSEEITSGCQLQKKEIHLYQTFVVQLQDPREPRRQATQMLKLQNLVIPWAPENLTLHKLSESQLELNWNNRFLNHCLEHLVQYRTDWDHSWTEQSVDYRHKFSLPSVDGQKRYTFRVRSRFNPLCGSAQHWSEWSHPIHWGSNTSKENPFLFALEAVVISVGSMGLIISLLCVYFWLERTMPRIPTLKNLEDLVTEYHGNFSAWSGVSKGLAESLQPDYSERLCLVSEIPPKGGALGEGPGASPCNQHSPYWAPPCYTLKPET

Chain of UniProt P01589 (P01589 22-272, chain 1 of 3): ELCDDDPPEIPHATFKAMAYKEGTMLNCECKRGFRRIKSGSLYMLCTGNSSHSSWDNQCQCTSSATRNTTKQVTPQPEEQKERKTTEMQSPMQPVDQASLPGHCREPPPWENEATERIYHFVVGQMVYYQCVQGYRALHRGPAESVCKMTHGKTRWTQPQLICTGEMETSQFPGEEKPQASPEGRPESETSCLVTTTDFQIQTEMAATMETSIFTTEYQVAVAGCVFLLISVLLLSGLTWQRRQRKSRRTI
Chain of UniProt P01589 (chain, as listed by the source, chain 2 of 3): as the sequence (P14784 27-551, chain 1 of 2) above
Chain of UniProt P01589 (chain, as listed by the source, chain 3 of 3): as the sequence (chain, as listed by the source, chain 2 of 2) above

Binder | Fold change from hIL-2 (NK-92), pSTAT5 fixed conc. [1] | Fold change from hIL-2 (TF1 + IL-2Rβ), pSTAT5 fixed conc. [2]
1H3-hIgG1-L6-hIL-2 (D20A/E61F) (protein) heavy: EVQLVESGGGLVQPGRSLKLSCAVSGFTFSDYAMAWVRQAPKKGLEWVATISYDGSRTYYRDSVKGRFTISRDNAKITLYLQMDSLRSEDTATYYCARHGSGYFDYWGQGVMVTVSS[not shown - about 450 residues with a human IgG1 Fc and changes] light: DTVLTQSPALAVSPGERVTISCRASESVRTGVHWYQQKPGQQPKLLIYGASNLESGVPARFSGSGSGTDFTLTIDPVEADDTATYFCQQSWNDPFTFGSGTKLEIKRTVAAPSVFIFPPSDEQLKSGTASVVCLLNNFYPREAKVQWKVDNALQSGNSQESVTEQDSKDSTYSLSSTLTLSKADYEKHKVYACEVTHQGLSSPVTKSFNRGEC | 14 fold | 0 fold
1H3-hIgG1-L6-hIL-2 (D20A/E61P) (protein) heavy: EVQLVESGGGLVQPGRSLKLSCAVSGFTFSDYAMAWVRQAPKKGLEWVATISYDGSRTYYRDSVKGRFTISRDNAKITLYLQMDSLRSEDTATYYCARHGSGYFDYWGQGVMVTVSS[not shown - about 450 residues with a human IgG1 Fc and changes] light: DTVLTQSPALAVSPGERVTISCRASESVRTGVHWYQQKPGQQPKLLIYGASNLESGVPARFSGSGSGTDFTLTIDPVEADDTATYFCQQSWNDPFTFGSGTKLEIKRTVAAPSVFIFPPSDEQLKSGTASVVCLLNNFYPREAKVQWKVDNALQSGNSQESVTEQDSKDSTYSLSSTLTLSKADYEKHKVYACEVTHQGLSSPVTKSFNRGEC | 15 fold | 1 fold
1H3-hIgG1-L6-hIL-2 (D20A/E61V) (protein) heavy: EVQLVESGGGLVQPGRSLKLSCAVSGFTFSDYAMAWVRQAPKKGLEWVATISYDGSRTYYRDSVKGRFTISRDNAKITLYLQMDSLRSEDTATYYCARHGSGYFDYWGQGVMVTVSS[not shown - about 450 residues with a human IgG1 Fc and changes] light: DTVLTQSPALAVSPGERVTISCRASESVRTGVHWYQQKPGQQPKLLIYGASNLESGVPARFSGSGSGTDFTLTIDPVEADDTATYFCQQSWNDPFTFGSGTKLEIKRTVAAPSVFIFPPSDEQLKSGTASVVCLLNNFYPREAKVQWKVDNALQSGNSQESVTEQDSKDSTYSLSSTLTLSKADYEKHKVYACEVTHQGLSSPVTKSFNRGEC | 17 fold | 3 fold
1H3-hIgG1-L6-hIL-2 (D20A/E61S) (protein) heavy: EVQLVESGGGLVQPGRSLKLSCAVSGFTFSDYAMAWVRQAPKKGLEWVATISYDGSRTYYRDSVKGRFTISRDNAKITLYLQMDSLRSEDTATYYCARHGSGYFDYWGQGVMVTVSS[not shown - about 450 residues with a human IgG1 Fc and changes] light: DTVLTQSPALAVSPGERVTISCRASESVRTGVHWYQQKPGQQPKLLIYGASNLESGVPARFSGSGSGTDFTLTIDPVEADDTATYFCQQSWNDPFTFGSGTKLEIKRTVAAPSVFIFPPSDEQLKSGTASVVCLLNNFYPREAKVQWKVDNALQSGNSQESVTEQDSKDSTYSLSSTLTLSKADYEKHKVYACEVTHQGLSSPVTKSFNRGEC | 16 fold | 1 fold
1H3-hIgG1-L6-hIL-2 (D20A/E61W) (protein) heavy: EVQLVESGGGLVQPGRSLKLSCAVSGFTFSDYAMAWVRQAPKKGLEWVATISYDGSRTYYRDSVKGRFTISRDNAKITLYLQMDSLRSEDTATYYCARHGSGYFDYWGQGVMVTVSS[not shown - about 450 residues with a human IgG1 Fc and changes] light: DTVLTQSPALAVSPGERVTISCRASESVRTGVHWYQQKPGQQPKLLIYGASNLESGVPARFSGSGSGTDFTLTIDPVEADDTATYFCQQSWNDPFTFGSGTKLEIKRTVAAPSVFIFPPSDEQLKSGTASVVCLLNNFYPREAKVQWKVDNALQSGNSQESVTEQDSKDSTYSLSSTLTLSKADYEKHKVYACEVTHQGLSSPVTKSFNRGEC | 15 fold | 2 fold
1H3-hIgG1-L6-hIL-2 (D20A/E61T) (protein) heavy: EVQLVESGGGLVQPGRSLKLSCAVSGFTFSDYAMAWVRQAPKKGLEWVATISYDGSRTYYRDSVKGRFTISRDNAKITLYLQMDSLRSEDTATYYCARHGSGYFDYWGQGVMVTVSS[not shown - about 450 residues with a human IgG1 Fc and changes] light: DTVLTQSPALAVSPGERVTISCRASESVRTGVHWYQQKPGQQPKLLIYGASNLESGVPARFSGSGSGTDFTLTIDPVEADDTATYFCQQSWNDPFTFGSGTKLEIKRTVAAPSVFIFPPSDEQLKSGTASVVCLLNNFYPREAKVQWKVDNALQSGNSQESVTEQDSKDSTYSLSSTLTLSKADYEKHKVYACEVTHQGLSSPVTKSFNRGEC | 16 fold | 2 fold

Second part, the binder after the results:

Fold change from hIL-2 (NK-92), pSTAT5 fixed conc. [1] | Fold change from hIL-2 (TF1 + IL-2Rβ), pSTAT5 fixed conc. [2] | Binder
17 fold | 2 fold | 1H3-hIgG1-L6-hIL-2 (D20A/F42G) (protein) heavy: EVQLVESGGGLVQPGRSLKLSCAVSGFTFSDYAMAWVRQAPKKGLEWVATISYDGSRTYYRDSVKGRFTISRDNAKITLYLQMDSLRSEDTATYYCARHGSGYFDYWGQGVMVTVSS[not shown - about 450 residues with a human IgG1 Fc and changes] light: DTVLTQSPALAVSPGERVTISCRASESVRTGVHWYQQKPGQQPKLLIYGASNLESGVPARFSGSGSGTDFTLTIDPVEADDTATYFCQQSWNDPFTFGSGTKLEIKRTVAAPSVFIFPPSDEQLKSGTASVVCLLNNFYPREAKVQWKVDNALQSGNSQESVTEQDSKDSTYSLSSTLTLSKADYEKHKVYACEVTHQGLSSPVTKSFNRGEC
16 fold | 1 fold | 1H3-hIgG1-L6-hIL-2 (D20A/F42E) (protein) heavy: EVQLVESGGGLVQPGRSLKLSCAVSGFTFSDYAMAWVRQAPKKGLEWVATISYDGSRTYYRDSVKGRFTISRDNAKITLYLQMDSLRSEDTATYYCARHGSGYFDYWGQGVMVTVSS[not shown - about 450 residues with a human IgG1 Fc and changes] light: DTVLTQSPALAVSPGERVTISCRASESVRTGVHWYQQKPGQQPKLLIYGASNLESGVPARFSGSGSGTDFTLTIDPVEADDTATYFCQQSWNDPFTFGSGTKLEIKRTVAAPSVFIFPPSDEQLKSGTASVVCLLNNFYPREAKVQWKVDNALQSGNSQESVTEQDSKDSTYSLSSTLTLSKADYEKHKVYACEVTHQGLSSPVTKSFNRGEC
15 fold | 2 fold | 1H3-hIgG1-L6-hIL-2 (D20A/E61Y) (protein) heavy: EVQLVESGGGLVQPGRSLKLSCAVSGFTFSDYAMAWVRQAPKKGLEWVATISYDGSRTYYRDSVKGRFTISRDNAKITLYLQMDSLRSEDTATYYCARHGSGYFDYWGQGVMVTVSS[not shown - about 450 residues with a human IgG1 Fc and changes] light: DTVLTQSPALAVSPGERVTISCRASESVRTGVHWYQQKPGQQPKLLIYGASNLESGVPARFSGSGSGTDFTLTIDPVEADDTATYFCQQSWNDPFTFGSGTKLEIKRTVAAPSVFIFPPSDEQLKSGTASVVCLLNNFYPREAKVQWKVDNALQSGNSQESVTEQDSKDSTYSLSSTLTLSKADYEKHKVYACEVTHQGLSSPVTKSFNRGEC
